{"source": "PubChem BioAssay AID485294", "about": "(National Center for Advancing Translational Sciences (NCATS), 2010)", "note": "About 150 (0.041%) of roughly 370,000 compounds were called active. Inconclusive results, whose numbers are uncertain, are shown with a selection of clear calls. Calls follow the shape of the dose curve; as a rule, active = well fitted inhibition curve with a large enough effect; inconclusive = small, poorly fitted or top-dose-only effect; inactive = flat fitted curve, though single readings scatter. No potency is given beside an inconclusive call; the fits are too rough. Potency is read from the fitted curve at half-maximal effect; tags tell the direction and shape of the fitted curve."}
{"target": "Beta-lactamase (Escherichia coli (strain K12)) (UniProt P00811)", "sequence (P00811 whole entry, looked up)": "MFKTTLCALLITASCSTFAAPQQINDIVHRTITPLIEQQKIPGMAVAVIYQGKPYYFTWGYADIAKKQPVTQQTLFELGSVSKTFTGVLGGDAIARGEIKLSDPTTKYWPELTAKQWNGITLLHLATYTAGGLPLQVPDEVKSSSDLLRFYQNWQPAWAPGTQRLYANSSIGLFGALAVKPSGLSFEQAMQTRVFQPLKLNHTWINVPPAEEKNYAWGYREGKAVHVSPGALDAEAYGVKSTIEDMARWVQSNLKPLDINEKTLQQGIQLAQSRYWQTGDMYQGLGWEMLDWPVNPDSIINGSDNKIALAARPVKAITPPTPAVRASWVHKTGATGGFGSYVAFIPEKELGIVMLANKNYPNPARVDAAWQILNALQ", "assay": "qHTS Inhibitors of AmpC Beta-Lactamase (assay with detergent); also: nearly all actives have a fitted effect of over 25% in size", "settings": "AmpC hydrolysis of nitrocefin, absorbance 480 nm, 0.01% Triton; series mostly up to 114 µM", "how_it_was_run": "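20 mM phosphate pH 7.0 + 0.01% (detergent screen) or 0.0001% Triton X-100; 5.3 nM AmpC reagent; cpd preinc 15 min RT; nitrocefin (800 uM stock) to start; A480 q20 s × 4 min; Activity was normalised to no-enzyme and no-compound control wells.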"}
{"compound": "C/C(=N\\Nc1ccc(F)cc1F)c1cccs1", "Potency": "inactive"}
{"compound": "COc1ccc(S(=O)(=O)N2CCC(C(=O)N3CCCCC3)CC2)cc1", "Potency": "inconclusive [inhibitor, full curve, poor fit]"}
{"compound": "COc1ccc(CNc2nc(-c3ccco3)nn2S(=O)(=O)c2ccc3ccccc3c2)cc1OC", "Potency": "inactive"}
{"compound": "N#Cc1nc(-c2ccco2)oc1NCCN1CCOCC1", "Potency": "inconclusive [inhibitor, full curve]"}
{"compound": "COc1cccc(C(NC(=O)c2ccccc2F)NC(=O)c2ccccc2F)c1", "Potency": "inactive"}
{"compound": "COc1ccc(CNC(=O)C(OC(C)=O)c2ccccn2)cc1", "note": "(centres undefined)", "Potency": "inactive"}
{"compound": "CNc1nc(Nc2ccc(Br)cc2)nc(N)c1[N+](=O)[O-]", "Potency": "inactive"}
{"compound": "COc1ccc2c(c1OC)CCC2=O", "Potency": "inconclusive [inhibitor, full curve, poor fit]"}
{"compound": "Oc1cc2c(cc1CN1CCN(c3ccc(F)cc3)CC1)OCO2", "Potency": "inconclusive [inhibitor, partial curve]"}
{"compound": "O=C(CCC(=O)c1ccc(F)cc1)OCc1nnc(-c2ccc([N+](=O)[O-])cc2)o1", "Potency": "inconclusive [inhibitor, full curve, poor fit]"}
{"compound": "CCC(C)NC(=O)CSc1nnc(-c2cc(-c3ccc(C)cc3)nc3ccccc23)n1N", "note": "(centres undefined)", "Potency": "inconclusive [inhibitor, single point]"}
{"compound": "CCN(C(=O)COC(=O)C1CC1)c1c(N)n(Cc2ccccc2)c(=O)[nH]c1=O", "Potency": "inconclusive [inhibitor, partial curve]"}
{"compound": "Cc1ccc(-c2cc(C(=O)N3CCN(S(=O)(=O)c4ccc(Br)s4)CC3)[nH]n2)cc1C", "Potency": "inactive"}
{"compound": "CCOC(=O)CNC(=O)c1ccc2[nH]c3c(c2c1)CCCC3", "Potency": "inactive"}
{"compound": "COc1ccccc1CCC(=O)N1CCN(S(=O)(=O)c2cccc(F)c2)CC1", "Potency": "inconclusive [inhibitor, full curve, poor fit]"}
{"compound": "CCOCC(=O)Nc1cc(C(=O)Nc2ccccc2)ccc1Cl", "Potency": "inconclusive [inhibitor, full curve, poor fit]"}
{"compound": "CN(C(=O)c1ccccn1)c1nnc(-c2cccnc2)s1", "Potency": "inconclusive [inhibitor, single point]"}
{"compound": "CCCCn1c(C)cc2c(c1=O)C1O[C@](CCCC)(Cc3cc(C#N)ccc31)O2", "Potency": "inconclusive [inhibitor, full curve]"}
{"compound": "COc1ccc(-c2cc(=O)c3c(OC)c(OC)c(OC)c(OC)c3o2)cc1OC", "Potency": "inconclusive [inhibitor, partial curve]"}
{"compound": "COc1cc2c(C(=O)N3CCOCC3)c(CSc3ccccc3)n(C)c2cc1Br", "Potency": "inactive"}
{"compound": "Cn1ncc([N+](=O)[O-])c1C(=O)Nc1ccc(-c2nc3ccccc3o2)cc1", "Potency": "inactive"}
{"compound": "O=c1cc(N2CCOCC2)c2ccccc2o1", "Potency": "inactive"}
{"compound": "Nc1nonc1-n1nnc(C(=O)N/N=C/c2ccccc2)c1CN1CCc2ccccc21", "Potency": "inconclusive [inhibitor, partial curve, poor fit]"}
{"compound": "O=C(CCCN1C(=O)/C(=C/c2ccco2)SC1=S)Nc1ccccc1", "Potency": "inconclusive [inhibitor, partial curve]"}
{"compound": "CCS(=O)(=O)N1CCC2(CC1)OC(=O)C(C)=C2C(=O)NCc1ccccc1C", "Potency": "inconclusive [inhibitor, single point]"}
{"compound": "O=C(CSC1=NC(=O)C(Cc2ccccc2)C(=O)N1)Nc1ncccn1", "note": "(centres undefined)", "Potency": "inconclusive [inhibitor, full curve, poor fit]"}
{"compound": "Oc1ccc(Cl)cc1CNCc1ccc(C(F)(F)F)cc1", "Potency": "inactive"}
{"compound": "Cc1cc(-c2ccc(S(=O)(=O)NCc3ccccc3Cl)s2)on1", "Potency": "inconclusive [inhibitor, single point]"}
{"compound": "Cc1ccc(-c2cc(-c3coc4ccccc4c3=O)c3c(n2)-c2ccccc2OC3)cc1", "Potency": "inactive"}
{"compound": "CC1CCCCC1NC(=O)c1nnc(Cc2ccc(Cl)cc2)o1", "note": "(centres undefined)", "Potency": "inconclusive [inhibitor, full curve, poor fit]"}
{"compound": "COc1ccc(NC(=O)Nc2cc(C)ccc2F)cc1OC", "Potency": "inactive"}
{"compound": "O=C(Cc1ccsc1)NNC(=O)c1ccccc1Cl", "Potency": "inconclusive [inhibitor, full curve, poor fit]"}
{"compound": "CCOC(=O)C1CCN(C(=O)CCC(=O)NCCc2ccc(Cl)cc2)CC1", "Potency": "inconclusive [inhibitor, full curve, poor fit]"}
{"compound": "O=C(C[n+]1ccc(C(=O)N/N=C/c2ccc(Cl)cc2Cl)cc1)c1ccccc1", "Potency": "inconclusive [inhibitor, full curve, poor fit]"}
{"compound": "Cc1c(Cl)cccc1NC(=O)c1cc2sccc2n1Cc1ccc(F)cc1", "Potency": "inactive"}
{"compound": "O=C(c1cccs1)N(Cc1cccc(Cl)c1)C1CCS(=O)(=O)C1", "note": "(centres undefined)", "Potency": "inconclusive [inhibitor, full curve, poor fit]"}
{"compound": "COc1ccc(C(CC(=O)c2ccccc2)S(=O)(=O)c2ccc(C)cc2)cc1", "note": "(centres undefined)", "Potency": "inactive"}
{"compound": "CCN(C(=O)CSc1nc2ccc(OC)cc2[nH]1)c1c(N)n(Cc2ccccc2)c(=O)[nH]c1=O", "Potency": "inconclusive [inhibitor, full curve, poor fit]"}
{"compound": "COc1ccc(C(C)(C)C)cc1NC(=O)COC(=O)CSCc1c(C)noc1C", "Potency": "inconclusive [inhibitor, partial curve]"}
{"compound": "CCC(=O)Nc1cccc(-n2nnnc2SCC(=O)NCc2ccco2)c1", "Potency": "inconclusive [inhibitor, partial curve, poor fit]"}
{"compound": "Cc1ccc(Nc2cc(-n3cccn3)ncn2)c(C)c1", "Potency": "inconclusive [inhibitor, full curve, poor fit]"}
{"compound": "O=C(c1ccc(F)cc1)c1ccc(-c2ccc(F)cc2)nc1", "Potency": "inactive"}
{"compound": "CC(C)C(=O)Nc1cccc(C(=O)Nc2ccccc2C(=O)O)c1", "Potency": "inconclusive [inhibitor, full curve, poor fit]"}
{"compound": "COc1ccccc1-c1c(C)nn2c(N3CCN(Cc4ccccc4)CC3)cc(C)nc12", "Potency": "inconclusive [inhibitor, full curve]"}
